The source of these data is ChEMBL document CHEMBL1201862, “PubChem BioAssay data set” (2004).

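Step 1: Grow cells in 96-well plates. Step 2: Expose to compound for 48 hours at 5 concentrations. Step 3: Interpolate endpoints linearly; if unreached, use highest concentration. GI50: concentration for 50% inhibition of growth.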 Active and inactive are the calls of the source. Cut-off read from the data, not from the text of the source: active = GI50 up to about 1.1 µM and inactive = higher.

This assay relates to NCI-H322M. The experiment in a line: NCI-60 cell line screen, 48 h.
As for `Cc1ccnc2nc(-c3cccc(Cl)c3)cc(O)c12`, the GI50 is active: 0.326 µM. `COc1cccc(-c2cc(O)c3cc(N4CCN(C)CC4)ccc3n2)c1`: the GI50 is inactive: 5.04 µM. Turning to `O=C(CC1Sc2ccccc2NC1=O)Nc1ccccc1[N+](=O)[O-]` (configuration not stated), the GI50 is inactive: > 100 µM.

As for `Cn1c(=S)c2nc(SCc3cccnc3)[nH]c2n(C)c1=O`, the GI50 is inactive: > 100 µM. As for `CN(Cc1cc(Cl)cc(Cl)c1O)Cc1c(O)ccc2ccccc12`, the figure is inactive: 19 µM; as for `COC(=O)c1ccc(C=C(C#N)C#N)cc1`, inactive: > 100 µM; as for `CCCCCCCCCCNC1CC(OC2CC(O)(C(O)CO)Cc3c(O)c4c(c(O)c32)C(=O)c2c(OC)cccc2C4=O)OC(C)C1O` (configuration not stated), inactive: 1.71 µM. With `COc1ccc(/C=C(\C#N)c2ccccn2)cc1OC` the figure was inactive: 70.6 µM; with `CC(=O)N1NC(c2ccccc2)=CC(=O)/C1=C/C(=O)c1ccccc1`, inactive: 80.2 µM; with `COc1ccc(C(c2ccccc2)N2C(=O)CCC2C(=O)O)cc1OC` (configuration not stated), inactive: > 100 µM. As to `COc1ccc(C2(C3c4cc(OC)c(OC)cc4CCN3C)SCCCS2)cc1O` (configuration not stated), the GI50 is inactive: > 100 µM. For the molecule `Cc1cc(C)nc(NC(=S)Nc2ccc([N+](=O)[O-])cc2)c1`, the GI50 is inactive: > 100 µM. As for `CC(C)(C)c1cc(C(=O)/C=C/c2c(Cl)cccc2Cl)cc(C(C)(C)C)c1O`, the figure is inactive: 35.9 µM; as for `CC1CCC2(CC1)N=C1CCC(C)CC1C1(CCC(C)CC1)N2` (configuration not stated), inactive: > 100 µM. With `Cc1oc2c(cc(O)c3ccccc32)c2cccc1-2` the figure was inactive: 92.5 µM. As for `CC(C)CCCC(=O)CCCCCCC(=O)CCN(O)C(=O)C(N)CO` (configuration not stated), the figure is inactive: 16.9 µM; as for `Cc1cc(OCc2nnc3sc(NC(=O)c4ccccc4)nn23)ccc1Cl`, inactive: 47.5 µM.

In the case of `O=c1oc(C(C(F)(F)F)C(F)(F)F)nc2ccccc12`, the GI50 was inactive: > 100 µM. Turning to `C[N+](C)(C)c1ncnc2c1ncn2C1CCCCO1` (configuration not stated), the GI50 is inactive: > 100 µM. Regarding `CC(=O)O[C@@H]1CN(S(=O)(=O)c2ccc(C)cc2)C[C@@H]1C1CCCCC1`, the GI50 is inactive: 35.8 µM.

Consider `C=CCC12CC(=O)CCC1CC(=O)C2` (configuration not stated), for which the GI50 is inactive: > 100 µM. With `COC(=O)/C(=C\c1cn(C(C)=O)c2ccccc12)P(=O)(OC)OC` the figure was inactive: 18 µM; with `Cc1cc(O)c2c(c1)C(C1c3cccc(O)c3C(=O)c3c(O)cc(C)cc31)c1cccc(O)c1C2=O` (configuration not stated), active: 0.914 µM. As for `O=C(Cn1cc(Br)c(=O)[nH]c1=O)c1ccc(-c2ccccc2)cc1`, the figure is inactive: 16.5 µM. As for `COc1ccc(N2C(=O)/C(=C/c3ccc(N(CCC#N)CCC#N)cc3C)N=C2/C=C\c2ccccc2)cc1`, the figure is inactive: 83.6 µM; as for `CC(=O)O[C@H]1[C@@H](N2CCN(C)CC2)C[C@H]2[C@@H]3CC=C4C[C@@H](N5CCCC5)CC[C@]4(C)[C@H]3CC[C@@]21C`, inactive: 49.3 µM. As to `CS(=O)(=O)OC1CCC2(C#N)CCC1C2=O` (configuration not stated), the GI50 was inactive: > 100 µM. As for `CC(=O)O[C@H]1C[C@H]2[C@@H](OC(C)=O)/C=C3\C[C@](C)(C(=O)[C@H](O)C(=C1C)C2(C)C)[C@@H](O)C[C@@H]3OC(=O)[C@H](O)[C@H](c1ccccc1)N(C)C`, the figure is inactive: > 100 µM; as for `Cc1cc(N(CCC#N)CCC#N)ccc1/C=N/NC(=O)c1ccccc1`, inactive: 31.8 µM; as for `OCCCc1cnco1`, inactive: > 100 µM.

Consider `Cc1cn(C2CC(n3cc(Cn4cc(Br)c(=O)[nH]c4=O)nn3)C(CO)O2)c(=O)[nH]c1=O` (configuration not stated), for which the GI50 was inactive: 90.4 µM.

As for `CCCCCCCCCCCC(=O)OCC1OC(n2cc(F)c(=O)[nH]c2=O)C(N)C(OC(=O)CCCCCCCCCCC)C1O` (configuration not stated), the GI50 was inactive: > 100 µM. With `CNC(=S)N/N=C(\C)c1cc(OC)ccc1O` the figure was inactive: > 100 µM.

Turning to `CCOC(=O)c1ncn2c1[nH]c(=S)c1ccccc12`, the GI50 was inactive: > 100 µM.

Regarding `Cn1c2c(c3ccccc31)CCN1C(=O)C34CCCC3CC21S4` (configuration not stated), the GI50 is inactive: > 100 µM. As for `COc1ccc(CCNC(=O)Cc2ccccc2CCO)cc1OC`, the figure is inactive: > 100 µM; as for `C=C1C(=O)O[C@H]2[C@H]3O[C@@H](C[C@@H]12)[C@@]1(C)CC[C@H](O1)[C@H](C)CCC[C@H]3C`, inactive: 3.56 µM. Turning to `CCCCCCCCSC(=O)NCCCC`, the GI50 is inactive: > 100 µM. On to `Cc1oc2nc1C(=O)NCc1nc(cs1)C(=O)N[C@H](C(C)C)c1nc(cs1)C(=O)N[C@H]2C`, for which the GI50 was inactive: 95.5 µM.

As to `C/C=C1/CN2CCC34C(=C(C(=O)OC)C1CC23)Nc1ccc(O)cc14` (configuration not stated), the GI50 is inactive: > 100 µM.

For `COC(=O)CP1(=O)OC2C(C3CCC2(C)C3(C)C)N1c1cc(C(F)(F)F)cc(C(F)(F)F)c1` (configuration not stated), the GI50 was inactive: 31.1 µM. With `N#C[C@H](c1nc2ccccc2[nH]1)c1nc2ccccc2nc1Cl` the figure was inactive: 4.65 µM. With `Cc1cccc(Nc2nc3ccccc3nc2NS(=O)(=O)c2ccc(N)cc2)c1` the figure was inactive: 43 µM; with `C=C1C(=O)OC2C1C(OC(=O)/C(C)=C/C)CC(O)(CCl)C1C(O)C=C(C)C21O` (configuration not stated), inactive: 30.7 µM; with `O=C(c1ccccc1)C1C(c2ccccc2)N1S(=O)(=O)c1ccccc1` (configuration not stated), inactive: > 100 µM.

For `CCOC(=O)NC(Nc1ccc(S(=O)(=O)Nc2ccc(OC)nn2)cc1)(C(F)(F)F)C(F)(F)F`, the GI50 was inactive: 43.1 µM.

For the molecule `COC(=O)C1=C(C(=O)OC)C2(C)Nc3ccccc3C2=C(c2ccccc2)C1` (configuration not stated), the GI50 is inactive: 19.7 µM. For the molecule `CCN(CC)c1ccc(C2N3CCCCC3[C@@H]3c4[nH]c5ccccc5c4CCN23)cc1` (some centres not stated), the GI50 is inactive: 50.4 µM. With `NC(Cc1cc(I)c(O)c(I)c1)C(=O)O` (configuration not stated) the figure was inactive: > 500 µM. For the molecule `COc1ccc(C2=NN(c3ccccc3)C(c3cc4cc(Br)ccc4nc3Cl)C2)cc1` (configuration not stated), the GI50 was inactive: > 25 µM.

Regarding `COc1ccc2oc3c(C)cc4c(OC)nnc(OC)c4c3c2c1`, the GI50 was inactive: 75.3 µM.

Take `CC(C)C(=O)Oc1cc2c(=O)oc3c(OC(=O)C(C)C)c(OC(=O)C(C)C)cc4c(=O)oc(c1OC(=O)C(C)C)c2c34`: the GI50 is inactive: > 100 µM. With `S=C(N/N=C/c1ccccc1)NC12CC3CC(CC(C3)C1)C2` the figure was inactive: > 100 µM; with `O=C(CC(=O)C1CCOC1=O)C(=O)Nc1cccc(Cl)c1` (configuration not stated), inactive: > 100 µM.

With `Nc1nc(Cl)cc(NCC2(CO)CCC(OCc3ccccc3)C2)n1` (configuration not stated), the GI50 was inactive: 12.2 µM. As for `CC(C)NCC(O)COC(=O)c1cccs1` (configuration not stated), the figure is inactive: > 100 µM; as for `CCOC(OC1=C(C#N)CCCC1)C(CC)[Se]c1ccccc1[N+](=O)[O-]` (configuration not stated), inactive: > 100 µM; as for `COC(=O)C(C)(C)OCc1ccc(C2NC(=O)N(c3cccc(Cl)c3)C(=O)N2c2cccc(Cl)c2)cc1` (configuration not stated), inactive: > 100 µM. With `CN(C)CCCNC(=O)c1cc(NC(=O)c2cc(NC(=O)c3cc(NC(=O)CCCn4ccc(CO)c4CO)cn3C)cn2C)cn1C`, the GI50 is inactive: 30.4 µM.

Regarding `CC(=O)OC1=NN=C2COC(c3ccccc3OC(C)=O)=NN2C1`, the GI50 was inactive: > 50 µM. Consider `CC12CCCCC1=C(F)C(F)(F)S2` (configuration not stated), for which the GI50 is inactive: 98.2 µM. With `NNC(=O)Nc1cccnc1` the figure was inactive: > 100 µM. On to `CCC(=O)N(c1ccccc1)C(C)CN1CCC(O)(c2cccc(C(F)(F)F)c2)CC1` (configuration not stated), for which the GI50 is inactive: 21.4 µM. Turning to `Cc1c(Cl)cccc1N1C(=O)C(Cl)=C(Cl)C1=O`, the GI50 is inactive: > 100 µM.

Regarding `O=C(CCc1ccccc1)CC1OC(=O)C(Cl)=C1Cl` (configuration not stated), the GI50 was inactive: 18.7 µM. Regarding `CC(=C(C(=O)O)C(=O)O)c1cc(-c2cccs2)cc(-c2ccc(Cl)cc2)c1O`, the GI50 is inactive: 18.1 µM. With `O/N=C1/CC2(N3CCOCC3)C3CC/C(=N\O)C2CC1(Cc1ccccc1)C3` (configuration not stated) the figure was inactive: > 100 µM; with `Cc1nc2ccccc2cc1C[N+]12CN3CN(CN(C3)C1)C2`, inactive: 22.8 µM.

With `CCC1CN2CCc3cc(OC)c(OC)cc3C2CC1CC1c2cc(OC)c(OC)cc2CCN1C(=O)C(N)Cc1ccccc1.[O-][Cl+3]([O-])([O-])O` (configuration not stated), the GI50 is inactive: 1.75 µM. Consider `CCOC(=O)C1=c2[nH]c3cccc4cccc(c43)n2C(=O)CC1`, for which the GI50 was inactive: > 100 µM.

For the molecule `CO[C@H]1O[C@@H]2OC3(C)CCC4[C@H](C)CCC([C@H]1C)[C@]42OO3` (some centres not stated), the GI50 is inactive: > 100 µM. As for `COc1cc(/C=C/C(=O)OCC23CC[C@@]4(C(=O)O)CCC(C)[C@H](C)C4C2=CCC2[C@@]4(C)CC[C@H](O)C(C)(C)C4CC[C@]23C)ccc1O` (some centres not stated), the figure is inactive: 19.4 µM; as for `C/C(C=O)=C1\C(O)C[C@]1(C)C1CC(C)(C)CC1O` (some centres not stated), inactive: > 100 µM; as for `CC(C)(C1=NC(C(C)(C)C)CO1)C1=N[C@@H](C(C)(C)C)CO1` (some centres not stated), inactive: > 100 µM. With `COc1cccc(-c2cc(O)c3ccccc3n2)c1` the figure was inactive: 5 µM. With `C[N+]1(CCCC[N+]2(C)CCCCCCC2)CCCCCCC1` the figure was inactive: > 100 µM; with `Cc1ccc(S(=O)(=O)n2cc(-c3cc(C(F)(F)F)ccn3)c3cc(Br)ccc32)cc1`, inactive: 17.3 µM; with `c1nc(OCC2CCCCC2)c2nc[nH]c2n1`, inactive: 88.1 µM.

Regarding `Cc1c2ccncc2c(C)c2c1[nH]c1ccc(O)c(OCC(F)(F)F)c12`, the GI50 was inactive: 5.86 µM. As for `CN(C)c1ccc(/C=C2\CNC/C(=C\c3ccc(N(C)C)cc3)C2=O)cc1`, the GI50 was inactive: 19 µM. With `Cc1ccc2c(O)cc(-c3cccc(Cl)c3)nc2n1` the figure was active: 0.0352 µM; with `C=CCOc1cccc(C2(O)c3ccccc3C3=NCCCN32)c1` (configuration not stated), inactive: 12.7 µM.
